# Source: PubChem BioAssay AID651567 (National Center for Advancing Translational Sciences (NCATS), 2012)
# Out of some 1,200 compounds screened, about 10 (0.8%) were called active. Inconclusive results (about 4%) are left out. The call rests on the fitted dose curve; in most records, active means well fitted inhibition curve with a large enough effect; inconclusive means small, poorly fitted or top-dose-only effect; inactive means no such curve, though single readings can be large or run the other way. This is one part of the list.
# Assay: qHTS Assay to Find Inhibitors of Chronic Active B-Cell Receptor Signaling: Hit Validation in OCI-Ly3 Assay
# Details: OCI-Ly3 IkB-luciferase reporter, Chroma-Glo luminescence, 4 h; series mostly up to 46.1 µM; activity change, negative = inhibition: at the top concentration
# Procedure, shortened: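 OCI-Ly3 cells in IMDM with 0.5% FBS get compound plus 80ng/ml doxycycline (dispensed solution), 4 hrs at 37C. Chroma-Glo read of green IkB-luc and red unfused luc; green/red ratio normalized to basal (0%) and 10 uM MG-132 (100%); concentration-response curves for each signal.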
# On the % scale 0 is the no-effect control and ±100 the full control effect.
row,Compound,"activity change, negative = inhibition"
1,COc1cc(OC)cc(C(=O)N/N=C(\C)CC(=O)Nc2ccccn2)c1,inactive: -3.7%
2,CC[C@]12c3[nH]c4cc(CCC(=O)N(C)C)ccc4c3CCN1C(=O)[C@@H](CC(=O)NC/C=C(\C)CCC=C(C)C)C[C@@H]2C(=O)N1CCN(C(=O)c2ccco2)CC1,inactive: -15.4%
3,COc1ccc(NCC(=O)n2c(C)c(C)c3ccccc32)cc1,inactive: -1.51%
4,COc1ccccc1-n1cnc2cc(NCc3cccs3)ccc21,inactive: 40.4%
5,Cc1cc(C)nc(SCc2ccc(C(=O)N/N=C/c3cccnc3)cc2)n1,inactive: -0.502%
6,COc1ccc(S(=O)(=O)N2CCCCC2)cc1NC(=O)c1ccc(OC)c(OC)c1,inactive: -1.06%
7,COc1cc2c(cc1OC)-c1cc(NC3CCCCC3)nc(=O)n1CC2,inactive: -0.939%
8,O=C(COC(=O)Cc1ccc(-c2ccccc2)cc1)NCc1ccccc1,inactive: -0.0516%
9,COc1cccc(CSc2nc3ccccc3cc2C=O)c1,inactive: -1.56%
10,NC(=S)N/N=C/c1ncc(C(F)(F)F)cc1Cl,inactive: -19%
11,CCOc1ccc(NC(=O)c2cc(OC)nc3ccccc23)cc1,inactive: -2.68%
12,COc1cccc(/C=C/C(=O)Nc2cc(S(=O)(=O)N3CCOCC3)ccc2OC)c1,inactive: -0.265%
13,COc1cc(C2C(C#N)=C(N)Oc3cc(N)ccc32)cc(OC)c1OC (configuration not stated),inactive: -10%
14,Cc1cc(=O)oc2cc(OCC3CC(c4ccccc4Cl)=NO3)ccc12 (configuration not stated),inactive: -1.99%
15,CNC(=S)N/N=C/c1ccco1,inactive: -0.913%
16,CNC(=S)N/N=C(\C)c1ccc(Cl)c(Cl)c1,inactive: 0.0372%
17,COc1cccc(-c2nnc(SCC(=O)Nc3cc(C)on3)o2)c1,inactive: -1.71%
18,COc1ccc(/C=C/C(=O)Nc2cc(S(=O)(=O)N3CCOCC3)ccc2OC)cc1,inactive: -1.83%
19,COc1ccccc1CNS(=O)(=O)c1ccc(-c2cnc(C3CC3)o2)cc1,inactive: -3.8%
20,Nc1cc(=O)[nH]c(SCC(=O)Nc2cc(Cl)cc(Cl)c2)n1,inactive: -4.6%
21,C[C@]12C=CC(=O)C=C1CC[C@@H]1[C@@H]2[C@@H](O)C[C@@]2(C)[C@H]1CC[C@]2(O)C(=O)COC(=O)CCC(=O)O,inactive: -1.59%
22,COc1ccc(/C=N\NC(=O)c2c(C)nc3ccc(Br)cn23)cc1,inactive: -1.89%
23,CC(=O)[C@H]1CC[C@H]2[C@@H]3C[C@H](C)C4=CC(=O)CC[C@]4(C)[C@H]3[C@@H](O)C[C@]12C,inactive: -0.785%
24,CCC(=O)Nc1nonc1-c1nc2ccccc2n1Cc1cccc2ccccc12,inactive: -2.61%
25,Cc1ccc(Oc2ccc(-c3nc(N)nc(N)n3)cc2)cc1C,inactive: -2.22%
26,C=CCn1c(SCC(=O)Nc2cccc(S(N)(=O)=O)c2)nc2sc(C)c(C)c2c1=O,inactive: -0.698%

row,Compound,"activity change, negative = inhibition"
1,Cc1cccc(NS(=O)(=O)c2ccc(C3CCCCC3)cc2)n1,inactive: -1.61%
2,CCOc1cc(C(=O)N(C)CC(=O)Nc2cccc3ccccc23)ccc1OC,inactive: -0.595%
3,CNC(=S)N/N=C(\C)c1ccc2c(c1)OCCO2,inactive: -0.452%
4,Cc1ccc(C#N)c(SCc2ccccc2[N+](=O)[O-])n1,inactive: -0.695%
5,CC(NC(=O)c1ccc(S(=O)(=O)NCc2ccco2)cc1)c1ccc(F)cc1 (configuration not stated),inactive: -0.364%
6,Cn1c(=O)n(Cc2ccccc2Cl)c2ccccc21,inactive: -0.537%
7,COc1ccccc1NC(=O)Cn1nnc(C(=O)NCc2cccs2)c1N,inactive: -0.743%
8,COC(=O)C1=CN(Cc2ccc(OC)c(OC)c2)C=C(C(=O)OC)C1c1cccc(O)c1,inactive: -0.462%
9,Cc1ccc(N2C(=O)c3cccc4c(N)ccc(c34)C2=O)c2cccnc12,inactive: -1.08%
10,CCOc1cc(/C=C(/C#N)C(=O)Nc2ccc(O)cc2)cc(Br)c1O,inactive: -11.9%
11,NC(=O)c1c(NC(=O)CSc2nc(N)cc(=O)[nH]2)sc2c1CCCC2,inactive: -11.2%
12,O=C(Cc1ccc(-n2c(=O)c3ccccc3n(Cc3ccccc3Cl)c2=O)cc1)NCC1CCCO1 (configuration not stated),inactive: -1.83%
13,O=C(COc1ccc(Oc2ccccc2)cc1)NCc1cn2ccccc2n1,inactive: -1.45%
14,COc1ccc(/C(C)=N/Nc2ncc(Cl)cc2Cl)c(O)c1,inactive: -0.146%
15,COc1ccc(/C=N/NC(=O)c2[nH]nc3c2CCc2ccccc2-3)cc1OC,inactive: -10%
16,Cc1ccc(S(=O)(=O)N2CCN(C(=O)CSc3n[nH]c(N)n3)CC2)c(C)c1,inactive: -0.591%
17,CCC(C)N(C(=O)COC(=O)c1cc([N+](=O)[O-])ccc1N1CCOCC1)C1CCS(=O)(=O)C1 (configuration not stated),inactive: 0.0699%
18,N#CC1=C(S)N(c2ccc(F)cc2)C(c2ccco2)NC1=O (configuration not stated),inactive: -0.842%
19,Cc1ccc(NS(=O)(=O)c2ccc(-c3cnc(C4CC4)o3)cc2)c(C)c1,inactive: -13.5%
20,Cc1cc(NC2CCCCC2)nc2ccccc12,inactive: -0.117%
21,CCOc1ccc(Nc2cc(C)nc(-n3nc(C)cc3C)n2)cc1,inactive: -3.94%
22,CCOc1ccccc1C1C2=C(COC2=O)Nc2cc3c(cc21)OCO3 (configuration not stated),inactive: -5.31%
23,CCCCC[C@H](O)/C=C/[C@@H]1[C@@H](CCCCCCC(=O)O)[C@@H](O)C[C@H]1O,inactive: -1.13%
24,S=c1[nH]cnc2sc(-c3ccccc3)cc12,inactive: -0.433%
25,Cc1ccc(CSc2nc3ccccc3cc2C=O)cc1,inactive: 1.14%
26,COc1ccc(C2CC(=O)Nc3cc(OC)c(OC)cc32)cc1Br (configuration not stated),inactive: -1.31%
